Test results as given in the supplement of paper PMC12217912.
Some of the results follow. Sequences were assembled here from the parent chain. Values near 0.05 are background.

B1: TEV protease; numbered along this chain (parent)
chain: MGESLFKGPRDYNPISSSICHLTNESDGHTTSLYGIGFGPFIITNKHLFRRNNGTLVVQSLHGVFKVKDTTTLQQHLVDGRDMIIIRMPKDFPPFPQKLKFREPQREERICLVTTNFQTKSMSSMVSDTSCTFPSGDGIFWKHWIQTKDGQCGSPLVSTRDGFIVGIHSASNFTNTNNYFTSVPKNFMELLTNQEAQQWVSGWRLNADSVLWGGHKVFMVKPEEPFQPVKEATQL

Variants of: B1
Assay: raw area under fraction-flipped curve 0-4 h after induction (AUC4h, not background-subtracted), DNA-recorder readout of cleavage of the substrate (dimensionless); higher = more cleavage of the substrate by the protease variant
Details: temperature: 34 °C; time window: 0-4 h after rhamnose induction
Procedure: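 In vivo DNA recorder in E. coli TOP10(DE3) ΔrhaA at 34 °C. Each TEVp single-site mutant (parent TEVp 0) is paired with a single-site variant of the 7-mer TEVs (canonical ENLYFQ|S). The substrate sits between flexible linkers in a Bxb1-sfGFP-TEVs-SsrA fusion, so cleavage stabilises Bxb1 and speeds flipping of a recombination array, read by NGS. The value is the raw area under the fraction-flipped curve over 0-4 h after rhamnose induction (AUC4h), with ≥20 reads per time point. It is not background-subtracted; inactive controls average about 0.047.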
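Note: Bxb1 expression induced with 0.2% (w/v) L-rhamnose at OD600 near 0.5, cultures sampled hourly, flipped fraction per protease–substrate barcode pair counted by paired-end Illumina sequencing.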

Row | Variant | area with substrate ENLYAQS | area with substrate ENLYCQS | area with substrate ENLYDQS | area with substrate ENLYEQS | area with substrate ENLYGQS | area with substrate ENLYIQS | area with substrate ENLYMQS | area with substrate ENLYNQS | area with substrate ENLYPQS | area with substrate ENLYQQS | area with substrate ENLYRQS | area with substrate ENLYSQS | area with substrate ENLYVQS | area with substrate ENLYHQS | area with substrate ENLYKQS | area with substrate ENLYWQS | area with substrate ENLYYQS | area with substrate ENLYLQS | area with substrate ENLYTQS
1 | T115I | 0.0714 | 0.062 | 0.0511 | 0.0772 | 0.077 | 0.118 | 0.078 | 0.0882 | 0.0622 | 0.0597 | 0.0684 | 0.076 | 0.15 | – | – | – | – | – | –
2 | L191H | 0.0646 | – | 0.0717 | 0.0471 | 0.0636 | – | 0.0429 | – | 0.0552 | 0.0624 | 0.0766 | – | 0.0587 | 0.0549 | 0.0429 | 0.059 | 0.0785 | – | –
3 | H62Q | 0.0556 | – | 0.0577 | 0.0744 | – | 0.116 | 0.0951 | 0.0643 | – | 0.0681 | 0.0571 | – | 0.114 | 0.0656 | 0.0609 | 0.0806 | – | 0.0729 | 0.0748
4 | G2W | 0.0889 | – | 0.0613 | 0.0676 | 0.0415 | – | – | – | – | 0.0618 | 0.0663 | – | – | – | – | – | – | – | –
5 | S60I | 0.064 | – | 0.0201 | 0.0603 | – | – | – | – | 0.0527 | 0.0555 | 0.0381 | 0.103 | 0.0882 | 0.0591 | – | – | – | – | –
6 | F187S | 0.0614 | – | 0.0705 | 0.0534 | 0.0618 | 0.0756 | 0.0581 | 0.076 | – | 0.0592 | 0.0569 | – | 0.0643 | 0.0692 | 0.0397 | 0.0713 | – | – | 0.0737
7 | G2V | 0.0951 | – | 0.0434 | 0.0669 | 0.0771 | 0.157 | 0.108 | – | 0.0912 | 0.0549 | – | 0.0854 | 0.069 | 0.0693 | 0.0534 | 0.13 | 0.064 | 0.0926 | 0.121
8 | Q234P | 0.0718 | – | – | 0.0722 | – | 0.107 | 0.0566 | 0.0721 | 0.0798 | 0.0555 | 0.0685 | 0.0712 | 0.0931 | 0.05 | 0.0585 | 0.0749 | – | – | 0.0843
9 | V57P | 0.0632 | – | 0.0458 | 0.0461 | 0.0496 | 0.037 | – | 0.0467 | 0.0357 | – | 0.0625 | 0.0397 | – | 0.0405 | 0.039 | – | – | 0.0468 | –
10 | F65C | 0.0663 | – | – | 0.0664 | 0.0616 | 0.112 | 0.0781 | 0.0352 | – | – | 0.0671 | 0.0705 | 0.102 | 0.0621 | 0.0603 | – | 0.0576 | – | 0.0524
11 | W141D | 0.0634 | – | – | 0.0741 | – | – | 0.0546 | 0.0554 | 0.0625 | – | – | – | 0.0658 | 0.0592 | 0.0557 | – | 0.062 | – | –
12 | W203H | 0.0456 | 0.055 | 0.0501 | 0.0613 | 0.0654 | – | 0.075 | 0.073 | 0.0624 | 0.0599 | – | 0.0381 | 0.0521 | 0.0613 | 0.0673 | 0.0612 | – | 0.0652 | 0.0512
13 | W212H | 0.0483 | – | 0.0763 | 0.0624 | – | – | – | 0.0559 | 0.0592 | – | 0.0514 | – | – | 0.0594 | – | – | 0.057 | 0.0431 | –
14 | K68S | 0.0812 | – | 0.174 | – | – | – | 0.0722 | – | 0.0837 | – | – | – | 0.105 | 0.0657 | – | 0.0803 | – | 0.0722 | 0.0809
15 | W203T | 0.0603 | – | 0.0565 | – | – | 0.0604 | 0.0787 | 0.0607 | 0.0565 | 0.0699 | 0.0568 | – | 0.078 | 0.059 | 0.0755 | 0.036 | – | 0.0569 | 0.0655
16 | H62G | 0.083 | – | 0.0742 | 0.0634 | 0.0553 | 0.125 | – | 0.0722 | 0.038 | – | – | 0.0586 | – | 0.0751 | 0.0576 | 0.0816 | 0.105 | – | –
17 | P93E | 0.093 | – | 0.0454 | – | 0.0449 | – | 0.103 | 0.0779 | 0.098 | 0.0555 | 0.0648 | 0.0713 | – | 0.0865 | – | 0.101 | – | – | –
18 | D91G | 0.0764 | 0.0999 | – | – | 0.0566 | – | 0.0825 | 0.0873 | 0.0795 | 0.0742 | – | 0.0519 | 0.0904 | 0.0675 | 0.0484 | 0.113 | 0.0767 | – | –
19 | T159W | 0.0648 | – | – | – | – | 0.122 | – | – | – | – | – | – | – | 0.0513 | – | – | – | – | –
20 | L211E | 0.0969 | 0.0991 | 0.0816 | – | 0.0601 | – | 0.103 | 0.048 | 0.0912 | 0.0688 | 0.0759 | – | – | 0.0681 | 0.0385 | 0.0951 | – | – | –
21 | S26I | 0.0642 | 0.0771 | 0.0505 | 0.0638 | 0.062 | 0.0728 | 0.0596 | – | 0.0524 | 0.0496 | – | – | – | 0.0463 | 0.0629 | 0.084 | 0.0684 | 0.0728 | 0.0527
22 | D79R | 0.0586 | – | 0.0581 | 0.0668 | 0.0666 | 0.0951 | – | 0.0641 | 0.0609 | 0.0576 | 0.0803 | 0.0697 | 0.09 | 0.064 | 0.0651 | – | – | – | 0.071
23 | S158C | 0.065 | 0.0798 | 0.0514 | 0.0579 | 0.0566 | 0.127 | 0.0623 | – | 0.0657 | – | 0.0602 | – | – | 0.052 | 0.0603 | 0.0729 | 0.0668 | – | –
24 | E108R | 0.0469 | – | 0.0603 | 0.0399 | 0.0514 | – | 0.0613 | – | 0.0634 | 0.0776 | – | 0.0797 | 0.0633 | 0.0614 | 0.0571 | 0.0555 | – | – | –
25 | S171N | 0.0289 | – | – | – | 0.0535 | 0.0613 | 0.054 | 0.0699 | – | – | – | – | – | 0.0505 | – | 0.0583 | 0.0568 | 0.0753 | 0.0579
26 | W212I | 0.0947 | – | – | 0.0762 | 0.0575 | – | 0.0807 | 0.0726 | 0.0762 | 0.064 | 0.074 | – | 0.163 | 0.0794 | – | – | 0.0821 | – | –
27 | K90T | 0.0897 | 0.0918 | 0.068 | 0.0811 | – | – | 0.0732 | 0.0654 | 0.0693 | 0.08 | – | – | 0.103 | 0.0751 | 0.063 | – | 0.0517 | – | 0.143
28 | G63E | 0.0634 | – | – | – | – | – | 0.0462 | 0.0546 | 0.066 | 0.0609 | 0.0538 | – | 0.102 | 0.069 | – | – | 0.0312 | – | –
29 | D69V | 0.0668 | 0.058 | – | 0.0578 | 0.065 | 0.0923 | 0.0684 | 0.0586 | 0.037 | 0.055 | 0.063 | – | – | 0.0606 | 0.059 | – | 0.052 | – | 0.0662
